Assay results: patent publication US20210070868A1 (published 2021)

T1: wild-type decoyMET (extracellular portion of human HGFR/MET: SEMA, PSI, IPT-1 to IPT-4) (UniProt P08581 25-932)
T1 chain: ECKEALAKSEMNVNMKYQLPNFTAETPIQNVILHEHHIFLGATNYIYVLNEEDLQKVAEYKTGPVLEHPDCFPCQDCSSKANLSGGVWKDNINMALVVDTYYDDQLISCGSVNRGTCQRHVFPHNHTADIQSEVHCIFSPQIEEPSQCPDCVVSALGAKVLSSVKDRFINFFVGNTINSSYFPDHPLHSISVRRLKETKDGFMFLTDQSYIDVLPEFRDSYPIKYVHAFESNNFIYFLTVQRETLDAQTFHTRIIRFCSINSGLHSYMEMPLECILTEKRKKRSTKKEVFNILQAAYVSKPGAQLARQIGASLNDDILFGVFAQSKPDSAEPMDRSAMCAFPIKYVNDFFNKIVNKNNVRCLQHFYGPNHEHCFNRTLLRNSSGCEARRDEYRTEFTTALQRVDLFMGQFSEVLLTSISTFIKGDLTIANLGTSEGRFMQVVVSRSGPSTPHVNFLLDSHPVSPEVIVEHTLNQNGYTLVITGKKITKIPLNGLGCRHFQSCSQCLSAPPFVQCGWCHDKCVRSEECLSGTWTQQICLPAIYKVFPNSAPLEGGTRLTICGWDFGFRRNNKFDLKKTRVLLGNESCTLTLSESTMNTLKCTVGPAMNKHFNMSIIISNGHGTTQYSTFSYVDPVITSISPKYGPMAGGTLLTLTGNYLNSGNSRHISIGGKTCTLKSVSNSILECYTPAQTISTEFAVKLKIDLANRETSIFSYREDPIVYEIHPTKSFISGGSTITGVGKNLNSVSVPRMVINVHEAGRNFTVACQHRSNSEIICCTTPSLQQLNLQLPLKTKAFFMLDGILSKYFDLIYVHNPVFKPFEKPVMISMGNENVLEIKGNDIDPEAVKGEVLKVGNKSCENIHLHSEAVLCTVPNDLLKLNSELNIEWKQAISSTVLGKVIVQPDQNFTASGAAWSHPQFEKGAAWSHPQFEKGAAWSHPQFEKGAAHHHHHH

B1: fusion protein with decoyMET^K842E at the N-terminal, linker L134 and scMvDN30 at the C-terminal (other)
chain: ECKEALAKSEMNVNMKYQLPNFTAETPIQNVILHEHHIFLGATNYIYVLNEEDLQKVAEYKTGPVLEHPDCFPCQDCSSKANLSGGVWKDNINMALVVDTYYDDQLISCGSVNRGTCQRHVFPHNHTADIQSEVHCIFSPQIEEPSQCPDCVVSALGAKVLSSVKDRFINFFVGNTINSSYFPDHPLHSISVRRLKETKDGFMFLTDQSYIDVLPEFRDSYPIKYVHAFESNNFIYFLTVQRETLDAQTFHTRIIRFCSINSGLHSYMEMPLECILTEKRKKRSTKKEVFNILQAAYVSKPGAQLARQIGASLNDDILFGVFAQSKPDSAEPMDRSAMCAFPIKYVNDFFNKIVNKNNVRCLQHFYGPNHEHCFNRTLLRNSSGCEARRDEYRTEFTTALQRVDLFMGQFSEVLLTSISTFIKGDLTIANLGTSEGRFMQVVVSRSGPSTPHVNFLLDSHPVSPEVIVEHTLNQNGYTLVITGKKITKIPLNGLGCRHFQSCSQCLSAPPFVQCGWCHDKCVRSEECLSGTWTQQICLPAIYKVFPNSAPLEGGTRLTICGWDFGFRRNNKFDLKKTRVLLGNESCTLTLSESTMNTLKCTVGPAMNKHFNMSIIISNGHGTTQYSTFSYVDPVITSISPKYGPMAGGTLLTLTGNYLNSGNSRHISIGGKTCTLKSVSNSILECYTPAQTISTEFAVKLKIDLANRETSIFSYREDPIVYEIHPTKSFISGGSTITGVGKNLNSVSVPRMVINVHEAGRNFTVACQHRSNSEIICCTTPSLQQLNLQLPLKTKAFFMLDGILSKYFDLIYVHNPVFEPFEKPVMISMGNENVLEIKGNDIDPEAVKGEVLKVGNKSCENIHLHSEAVLCTVPNDLLKLNSELNIEWKQAISSTVLGKVIVQPDQNFTGGGGSGGGGSGGGGSAEAWYNLGNAYYKQGDYQKAIEYYQKALELDPNNAEAWYNLGNAYYKQGDYQKAIEYYQKALELDPNNAEAWYNLGNAYYKQGDYQKAIEDYQKALELDPNNGGGGSGGGGSGGGGSGGDIVLTQSPASLAVSLGQRATISCKASQSVDYDGGSYMSWFQQRPGQPPKLLISAASNLESGIPARFSGSGSGTDFTLNIHPVEEEDVATYYCQQSYEDPLTFGAGTKVEIKRTVAAPSVFIFPPSDEQLKSGTASVVCLLNNFYPREAKVQWKVDNALQSGNSQESVTEQDSKDSTYSLSSTLTLSKADYEKHKVYACEVTHQGLSSPVTKSFNRGECGGSSGSGSGSTGTSSSGTGTSAGTTGTSASTSGSGSGGGGGSGGGGSAGGTATAGASSGSVQLQQPGTELVKPGASVKLSCKASGYTFTSYWIHWVKQRPGQGLEWIGEINPSSGRTNYNEKFKNKVTVTVDKSSTTAYMQLSNLTSEDSAVYYCASRGYWGQGTTLTVSSASTKGPSVFPLAPSSKSTSGGTAALGCLVKDYFPEPVTVSWNSGALTSGVHTFPAVLQSSGLYSLSSVVTVPSSSLGTQTYICNVNHKPSNTKVDKKVEPKSCDKTHTTRGAAWSHPQFEKGAAWSHPQFEKGAAWSHPQFEKGAAHHHHHH
B2: fusion protein with scMvDN30 at the N-terminal, linker L134 and decoyMET^K842E at the C-terminal (other)
chain: DIVLTQSPASLAVSLGQRATISCKASQSVDYDGGSYMSWFQQRPGQPPKLLISAASNLESGIPARFSGSGSGTDFTLNIHPVEEEDVATYYCQQSYEDPLTFGAGTKVEIKRTVAAPSVFIFPPSDEQLKSGTASVVCLLNNFYPREAKVQWKVDNALQSGNSQESVTEQDSKDSTYSLSSTLTLSKADYEKHKVYACEVTHQGLSSPVTKSFNRGECGGSSGSGSGSTGTSSSGTGTSAGTTGTSASTSGSGSGGGGGSGGGGSAGGTATAGASSGSVQLQQPGTELVKPGASVKLSCKASGYTFTSYWIHWVKQRPGQGLEWIGEINPSSGRTNYNEKFKNKVTVTVDKSSTTAYMQLSNLTSEDSAVYYCASRGYWGQGTTLTVSSASTKGPSVFPLAPSSKSTSGGTAALGCLVKDYFPEPVTVSWNSGALTSGVHTFPAVLQSSGLYSLSSVVTVPSSSLGTQTYICNVNHKPSNTKVDKKVEPKSCDKTHTGGGGSGGGGSGGGGSAEAWYNLGNAYYKQGDYQKAIEYYQKALELDPNNAEAWYNLGNAYYKQGDYQKAIEYYQKALELDPNNAEAWYNLGNAYYKQGDYQKAIEDYQKALELDPNNGGGGSGGGGSGGGGSGGECKEALAKSEMNVNMKYQLPNFTAETPIQNVILHEHHIFLGATNYIYVLNEEDLQKVAEYKTGPVLEHPDCFPCQDCSSKANLSGGVWKDNINMALVVDTYYDDQLISCGSVNRGTCQRHVFPHNHTADIQSEVHCIFSPQIEEPSQCPDCVVSALGAKVLSSVKDRFINFFVGNTINSSYFPDHPLHSISVRRLKETKDGFMFLTDQSYIDVLPEFRDSYPIKYVHAFESNNFIYFLTVQRETLDAQTFHTRIIRFCSINSGLHSYMEMPLECILTEKRKKRSTKKEVFNILQAAYVSKPGAQLARQIGASLNDDILFGVFAQSKPDSAEPMDRSAMCAFPIKYVNDFFNKIVNKNNVRCLQHFYGPNHEHCFNRTLLRNSSGCEARRDEYRTEFTTALQRVDLFMGQFSEVLLTSISTFIKGDLTIANLGTSEGRFMQVVVSRSGPSTPHVNFLLDSHPVSPEVIVEHTLNQNGYTLVITGKKITKIPLNGLGCRHFQSCSQCLSAPPFVQCGWCHDKCVRSEECLSGTWTQQICLPAIYKVFPNSAPLEGGTRLTICGWDFGFRRNNKFDLKKTRVLLGNESCTLTLSESTMNTLKCTVGPAMNKHFNMSIIISNGHGTTQYSTFSYVDPVITSISPKYGPMAGGTLLTLTGNYLNSGNSRHISIGGKTCTLKSVSNSILECYTPAQTISTEFAVKLKIDLANRETSIFSYREDPIVYEIHPTKSFISGGSTITGVGKNLNSVSVPRMVINVHEAGRNFTVACQHRSNSEIICCTTPSLQQLNLQLPLKTKAFFMLDGILSKYFDLIYVHNPVFEPFEKPVMISMGNENVLEIKGNDIDPEAVKGEVLKVGNKSCENIHLHSEAVLCTVPNDLLKLNSELNIEWKQAISSTVLGKVIVQPDQNFTASGAAWSHPQFEKGAAWSHPQFEKGAAWSHPQFEKGAAHHHHHH
B3: fusion protein with decoyMET^K842E at the N-terminal, linker L60 and scMvDN30 at the C-terminal (other)
chain: ECKEALAKSEMNVNMKYQLPNFTAETPIQNVILHEHHIFLGATNYIYVLNEEDLQKVAEYKTGPVLEHPDCFPCQDCSSKANLSGGVWKDNINMALVVDTYYDDQLISCGSVNRGTCQRHVFPHNHTADIQSEVHCIFSPQIEEPSQCPDCVVSALGAKVLSSVKDRFINFFVGNTINSSYFPDHPLHSISVRRLKETKDGFMFLTDQSYIDVLPEFRDSYPIKYVHAFESNNFIYFLTVQRETLDAQTFHTRIIRFCSINSGLHSYMEMPLECILTEKRKKRSTKKEVFNILQAAYVSKPGAQLARQIGASLNDDILFGVFAQSKPDSAEPMDRSAMCAFPIKYVNDFFNKIVNKNNVRCLQHFYGPNHEHCFNRTLLRNSSGCEARRDEYRTEFTTALQRVDLFMGQFSEVLLTSISTFIKGDLTIANLGTSEGRFMQVVVSRSGPSTPHVNFLLDSHPVSPEVIVEHTLNQNGYTLVITGKKITKIPLNGLGCRHFQSCSQCLSAPPFVQCGWCHDKCVRSEECLSGTWTQQICLPAIYKVFPNSAPLEGGTRLTICGWDFGFRRNNKFDLKKTRVLLGNESCTLTLSESTMNTLKCTVGPAMNKHFNMSIIISNGHGTTQYSTFSYVDPVITSISPKYGPMAGGTLLTLTGNYLNSGNSRHISIGGKTCTLKSVSNSILECYTPAQTISTEFAVKLKIDLANRETSIFSYREDPIVYEIHPTKSFISGGSTITGVGKNLNSVSVPRMVINVHEAGRNFTVACQHRSNSEIICCTTPSLQQLNLQLPLKTKAFFMLDGILSKYFDLIYVHNPVFEPFEKPVMISMGNENVLEIKGNDIDPEAVKGEVLKVGNKSCENIHLHSEAVLCTVPNDLLKLNSELNIEWKQAISSTVLGKVIVQPDQNFTGGSSGSGSGSTGTSSSGTGTSAGTTGTSASTSGSGSGGGGGSGGGGSAGGTATAGASSGSDIVLTQSPASLAVSLGQRATISCKASQSVDYDGGSYMSWFQQRPGQPPKLLISAASNLESGIPARFSGSGSGTDFTLNIHPVEEEDVATYYCQQSYEDPLTFGAGTKVEIKRTVAAPSVFIFPPSDEQLKSGTASVVCLLNNFYPREAKVQWKVDNALQSGNSQESVTEQDSKDSTYSLSSTLTLSKADYEKHKVYACEVTHQGLSSPVTKSFNRGECGGSSGSGSGSTGTSSSGTGTSAGTTGTSASTSGSGSGGGGGSGGGGSAGGTATAGASSGSVQLQQPGTELVKPGASVKLSCKASGYTFTSYWIHWVKQRPGQGLEWIGEINPSSGRTNYNEKFKNKVTVTVDKSSTTAYMQLSNLTSEDSAVYYCASRGYWGQGTTLTVSSASTKGPSVFPLAPSSKSTSGGTAALGCLVKDYFPEPVTVSWNSGALTSGVHTFPAVLQSSGLYSLSSVVTVPSSSLGTQTYICNVNHKPSNTKVDKKVEPKSCDKTHTTRGAAWSHPQFEKGAAWSHPQFEKGAAWSHPQFEKGAAHHHHHH

Molecular target: T1, wild-type decoyMET (extracellular …)
Test: ELISA

Kd	Binder
39.6 nM	B1
7.68 nM	B2
34.3 nM	B3

The binders below were run against Hepatocyte Growth Factor (HGF) (UniProt P14210 32-728) (assay: ELISA).
UniProt P14210, sequence (P14210 32-728): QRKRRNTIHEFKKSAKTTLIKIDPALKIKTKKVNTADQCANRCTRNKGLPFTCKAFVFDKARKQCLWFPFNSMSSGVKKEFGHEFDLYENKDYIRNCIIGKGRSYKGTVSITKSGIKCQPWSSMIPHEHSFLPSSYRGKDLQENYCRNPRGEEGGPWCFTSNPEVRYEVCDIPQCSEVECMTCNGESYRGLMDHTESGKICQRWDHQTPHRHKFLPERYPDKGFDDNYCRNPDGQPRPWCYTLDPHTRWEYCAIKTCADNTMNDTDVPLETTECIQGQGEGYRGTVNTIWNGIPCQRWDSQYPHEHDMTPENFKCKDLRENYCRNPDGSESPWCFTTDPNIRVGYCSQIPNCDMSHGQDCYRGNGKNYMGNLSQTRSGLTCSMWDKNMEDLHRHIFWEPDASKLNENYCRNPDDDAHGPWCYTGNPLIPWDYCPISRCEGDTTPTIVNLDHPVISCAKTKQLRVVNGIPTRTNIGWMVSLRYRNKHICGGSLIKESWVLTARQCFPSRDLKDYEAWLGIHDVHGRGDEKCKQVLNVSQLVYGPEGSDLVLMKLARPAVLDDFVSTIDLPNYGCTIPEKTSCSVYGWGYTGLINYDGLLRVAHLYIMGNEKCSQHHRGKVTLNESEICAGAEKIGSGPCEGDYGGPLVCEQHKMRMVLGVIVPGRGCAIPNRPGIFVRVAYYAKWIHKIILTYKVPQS

Kd	Binder
0.125 nM	B1
0.374 nM	B2
0.174 nM	B3
